Laboratory results published in PubChem BioAssay AID485344 (National Center for Advancing Translational Sciences (NCATS), 2010).
Among all 340,000 compounds or so, about 6,900 (2%) were called active. Rule as the data show it: active = inhibition above about 30%; inactive = below that, where a call was filed. The list shows a part of the results, in another mix than the full data. The source gives no active or inactive call for entries shown without one. Where a structure was tested more than once in an assay, its records may differ in their call.

Target: D(2) dopamine receptor (Homo sapiens) (UniProt P14416)
Assay: HTS Assay for Allosteric Antagonists of the Human D2 Dopamine Receptor: Primary Screen for Antagonists; also: 0% is about no effect
Settings: HEK293 TREx D2 cells, calcium flux, dopamine EC80; at 10 µM; stronger effect = higher value
Procedure, shortened: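 Overnight-induced (tetracycline, 30 C) HEK293 T-REx cells carrying force-coupled D2 receive a no-wash calcium dye, then compound, then EC80 dopamine at 180 s; signals are read kinetically throughout.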

Chain of UniProt P14416 (P14416 whole entry, looked up): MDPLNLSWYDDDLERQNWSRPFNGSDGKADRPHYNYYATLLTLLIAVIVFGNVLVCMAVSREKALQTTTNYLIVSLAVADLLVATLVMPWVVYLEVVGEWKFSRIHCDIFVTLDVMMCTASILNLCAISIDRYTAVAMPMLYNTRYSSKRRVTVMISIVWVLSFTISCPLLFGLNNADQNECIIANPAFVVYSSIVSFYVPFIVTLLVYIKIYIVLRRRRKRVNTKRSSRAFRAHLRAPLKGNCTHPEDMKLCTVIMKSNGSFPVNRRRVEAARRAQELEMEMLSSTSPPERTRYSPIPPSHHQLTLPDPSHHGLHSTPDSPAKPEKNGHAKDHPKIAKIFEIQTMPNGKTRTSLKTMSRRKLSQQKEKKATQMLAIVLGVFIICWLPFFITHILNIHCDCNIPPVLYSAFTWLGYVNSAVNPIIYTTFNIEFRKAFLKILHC

| SMILES | inhibition |
| --- | --- |
| CCn1ccc2cc(S(=O)(=O)N3CCCN(C(=O)Nc4cc(Cl)ccc4C)CC3)ccc21 | -15.4% |
| CC(C)c1ccc(NS(=O)(=O)c2ccc3[nH]cc(C(=O)N4CCCC4)c(=O)c3c2)cc1 | 1.64% |
| CC1CCN(C(=O)c2cc(-c3cccc(Cl)c3)on2)CC1 | 1.49% |
| CC(C)c1nnc(NC(=O)CS(=O)(=O)Cc2ccccc2)s1 | active: 54.6% |
| COc1ccc(-c2noc(-c3ccc(NCCc4ccccc4)c([N+](=O)[O-])c3)n2)cc1OC | 16.1% |
| Cc1cc(C)cc(-n2c(SCC(=O)NCC3CCCO3)nc3c([nH]c4ccccc43)c2=O)c1 (stereo not drawn) | 1.93% |
| CCOc1ccc(-c2cc(NC(=O)c3ccc(C)cc3)c(C(=O)OC)s2)cc1 | -6.45% |
| CN(C)CCCNC(=O)N1c2ccccc2C=Cc2ccccc21 | active: 33.4% |
| CC(C)(C)C(=O)c1cnc(Nc2ccccc2)s1 | active: 32.1% |
| COc1ccc2c(c1)-c1nc(NC(=O)c3ccc(C)cc3)sc1CC2 | 14% |
| O=C(NCc1ccc2c(c1)OCO2)c1ccc2c(c1)N(Cc1ccc(F)cc1)C(=O)c1ccccc1S2=O (stereo not drawn) | 13.1% |
| CCN(c1ccc(Cl)cc1)S(=O)(=O)c1nnc(NC(=O)C2CCCCC2)s1 | 23.3% |
| Cc1ccc2nc(N(Cc3cccnc3)C(=O)c3ccc4c(c3)OCCO4)sc2c1 | -4.91% |
| CCOCCc1nn2c(=O)cc(COC(=O)c3cccs3)nc2s1 | -1.45% |
| CCCN1C(=O)c2ccccc2CC1(C)C(=O)NC1CCCCC1 (stereo not drawn) | 5.64% |
| COc1ccccc1NC(=O)C1CCN(S(=O)(=O)c2ccc3c(c2)oc(=O)n3C)CC1 | 0.396% |
| Cc1ccc(NC(=O)N2CCN(c3nnc(C)c4c(C)n(-c5ccccc5)nc34)CC2)cc1Cl | 10.1% |
| CCOc1ccccc1CNC(=O)c1cnc2sc(N3CCCC3)nn2c1=O | 13.6% |
| CCOCCCn1c(SCC(=O)Nc2cccc(OC)c2)nc2ccccc2c1=O | 11.3% |
| Cc1cccc(CN2C(=O)CC(c3ccc(Cl)cc3)c3c(C)nn(-c4nc(C)cc(C)n4)c32)c1 (stereo not drawn) | 13.6% |
| COc1ccccc1N(CC(=O)Nc1ccccc1F)S(C)(=O)=O | -7.97% |
| CCCNc1nc(NCc2ccccc2OC)c2cnn(C)c2n1 | 17.5% |
| CCN(CCCNC(=O)c1cc2c(=O)[nH]c3ccc(C)cc3c2s1)c1ccc(C)cc1 | -11.6% |
| COc1ccc(C2NC(=O)c3c(sc4c3CCN(C)C4)N2)cc1O (stereo not drawn) | 23.9% |
| Cc1ccc(Cl)cc1N1CCN(S(=O)(=O)c2ccc3[nH]c4c(c3c2)CCCC4)CC1 | 5.67% |

| SMILES | inhibition |
| --- | --- |
| Cc1cccc(N2CCN(C(=O)C3CCN(S(=O)(=O)c4cn(C)cn4)CC3)CC2)c1C | 15.6% |
| COc1ccccc1NC(=O)CN1C(=O)c2cccc3cccc1c23 | -3.63% |
| CCCCCn1c(=O)[nH]c2cc(C(=O)NCc3ccc(OC)cc3)ccc2c1=O | -3.41% |
| CCOC(=O)c1ccc(NC(=O)CCS(=O)(=O)c2ccc3c(c2)oc(=O)n3C)cc1 | -11.1% |
| CCc1ccc(-n2nc(C)c3c(C(=O)NCCc4ccc(OC)c(OC)c4)cc(C)nc32)cc1 | -8.16% |
| COc1ccc(CN2COc3ccc4c(-c5ccc(OC)cc5)cc(=O)oc4c3C2)cc1 | 17.9% |
| Cc1ccc(-c2nc(S(=O)(=O)c3ccc(C)cc3)c(N3CCN(c4ccccc4)CC3)o2)cc1 | 0.976% |
| CCN(CC)CCNC(=O)c1cc(Cl)c(N)cc1OC | active: 81.8% |
| CN1C[C@H](C(=O)N[C@]2(C)O[C@@]3(O)[C@@H]4CCCN4C(=O)[C@H](Cc4ccccc4)N3C2=O)CC2c3cccc4[nH]cc(c34)C[C@H]21 (stereo partly drawn) | active: 88.1% |
| COc1ccc(N2CCN(S(=O)(=O)CCNC(=O)c3ccc(C(F)(F)F)cc3)CC2)cc1 | -6.79% |
| CCOC(=O)c1cc(OC(=O)c2ccc(Cl)cc2)n(-c2ccccc2)n1 | 18.9% |
| Cc1ccc(N(CC(=O)N2CCN(c3ccc(Cl)cc3)CC2)S(=O)(=O)c2c(C)noc2C)cc1 | -17.6% |
| COc1ccc(C2C(=O)N(C3CCCCC3)CC(=O)N2Cc2ccccc2Cl)cc1OC (stereo not drawn) | -0.232% |
| CCN(CC)C(=O)c1ccc(C)c(Br)c1 | active: 31.3% |
| COc1ccc(-c2nn(CC(=O)Nc3ccccc3F)c3c2cnc2ccc(F)cc23)cc1 | 0.675% |
| Cc1ccc(N2CCN(C(=O)c3ccc4c(Cl)c5c(nc4c3)CCCC5)CC2)c(C)c1 | 8.62% |
| O=C(Nc1ccc(F)cc1F)c1c2c(nc3ccccc13)C(=O)N(C1CCCCC1)C2 | 5.19% |
| Cc1noc(C)c1S(=O)(=O)N(CC(=O)NCc1ccccc1Cl)c1ccc(C(C)C)cc1 | -12.2% |
| O=C(NCc1cccs1)C1CCN(C(=O)N2CCOc3ccccc32)CC1 | 23.5% |
| O=C(Nc1c(-c2ccccc2)nc2ccccn12)c1ccc(Br)cc1 | 5.38% |
| O=C(CSc1nc2c([nH]c3ccccc32)c(=O)n1-c1ccccc1)c1ccccc1 | 9.1% |
| CCOc1ccc(C2C(=O)N(C3CCCCCC3)CC(=O)N2CCc2ccccc2)cc1OC (stereo not drawn) | 10.9% |
| CCOc1ccc(CCNC(=O)c2cnc3sc(N4CCOCC4)nn3c2=O)cc1 | -12.3% |
| CCC1CCCCN1C(=O)c1nn(-c2ccc(C)cc2)c(=O)c2c1c1ccccc1n2C (stereo not drawn) | 12.5% |
| COc1ccc(Cn2ccnc2SCC(=O)NCc2ccccc2)cc1 | 0.452% |

| SMILES | inhibition |
| --- | --- |
| COc1ccccc1-c1ccnc2[nH]n(-c3ccccc3)c(=O)c12 | -1.31% |
| CCc1cccc(C)c1NC(=O)Cn1c(=O)cc(C(F)(F)F)c2c(C)nn(C)c21 | -2.82% |
| CCOc1ccc(C(=O)Nc2ccc(S(=O)(=O)N3CCCCC3c3cccnc3)cc2)cc1 (stereo not drawn) | 4.24% |
| Cc1ccc(C)c(S(=O)(=O)NCC(c2ccco2)S(=O)(=O)c2ccc(F)cc2)c1 (stereo not drawn) | -17.7% |
| Cc1coc2c(C)c3oc(=O)c(CC(=O)N4CCCCC4)c(C)c3cc12 | -9.22% |
| COC(=O)c1ccc(NC(=O)Cc2coc3cc(C)ccc23)cc1 | 8.54% |
| COc1ccc(-c2nc3nc(C)cc(Nc4ccc(C(C)=O)cc4)n3n2)cc1 | -0.621% |
| COc1ccccc1NC(=O)Cn1c(=O)n(Cc2ccccc2)c(=O)c2ccccc21 | -11.7% |
| COc1ccc(CN2COc3ccc4c(C)cc(=O)oc4c3C2)cc1 | 0.165% |
| COc1cccc(NC(=O)c2oc3ccccc3c2NC(=O)C23CC4CC(CC(C4)C2)C3)c1 | 2.54% |
| COc1ccc(NC(=O)C(=O)NCCc2csc(-c3ccc(Cl)cc3)n2)cc1 | 6.43% |
| O=C(CCn1c(=O)c2cccn2c2ccc(F)cc21)NCCc1ccccc1Cl | 16.5% |
| CCCOc1ccc(Nc2nc(SC)ncc2C(=O)OCC)cc1 | 7.02% |
| COC(=O)c1ccc(NC(=O)Nc2nnc(N(C)C3CCCCC3)s2)cc1 | -11.8% |
| CCOc1ccc(C(=O)Nc2ccc(-c3nc4cc(CC)ccc4o3)cc2)cc1 | 9.2% |
| CCc1[nH]nc2c1C(c1ccc(C)o1)C(C#N)=C(N)O2 (stereo not drawn) | active: 63.9% |
| CCOc1ccc(-c2ccc(NS(=O)(=O)c3cc(C)c(C)cc3C)cc2)nn1 | -14.7% |
| O=C(CN1CCN(Cc2ccccc2F)C1=O)NC1CCCC1 | active: 40% |
| CCN(C(=O)COc1cc(=O)n(C)c2ccccc12)c1cccc(C(F)(F)F)c1 | 4.33% |
| CCOc1ccc(CCNC(=O)c2ccc(CS(=O)(=O)Cc3ccccc3Cl)o2)cc1OCC | 4.04% |
| O=C(Cc1cccs1)NC1CC(=O)N(c2ccccc2)C1 (stereo not drawn) | 6.69% |
| COc1ccc(-c2c(C)nn3c(C(F)(F)F)cc(-c4ccc(Br)cc4)nc23)cc1 | 16% |
| CCc1cccc(C)c1NC(=O)CN1CCCN(Cc2ccc(C)cc2)S1(=O)=O | 0.0545% |
| CCOC(=O)c1cc(-c2ccc(F)cc2)n(CC(=O)NC2CCCCC2)c1C | 6.49% |
| Cc1cc(C)n2c(Nc3c(C)cccc3C)c(-c3ccsc3)nc2n1 | 3.54% |

| SMILES | inhibition |
| --- | --- |
| O=C(CN1CCCN(Cc2ccccc2Cl)S1(=O)=O)Nc1ccc2c(c1)OCCO2 | 0.217% |
| Cc1nc2nc(SCC(=O)NCc3ccccc3)nn2c(C)c1Cc1ccccc1Cl | -9.26% |
| Cc1ccc(OCCSc2nc3ccc(NC(=O)COc4ccc(F)cc4)cc3s2)cc1 | -22.6% |
| CCN(CC)c1ccc2cc(-c3nnc(-c4ccncc4)o3)c(=O)oc2c1 | active: 66.3% |
| Cc1ccc(C(=O)Sc2cccccc2=O)cc1 | active: 37.1% |
| CCOc1ccc(NC(=O)NC(C)c2c(-n3cccc3)sc(C)c2C)cc1 (stereo not drawn) | 0.0268% |
| CCOc1ccccc1N1CCN(CC(=O)NC(C)c2ccccc2)CC1 (stereo not drawn) | active: 100% |
| Cc1cccc(OCCCCn2nnc3sc4c(c3c2=O)CCC(C)C4)c1 (stereo not drawn) | -6.33% |
| O=C(Cn1nc(N2CCN(c3ccccc3)CC2)ccc1=O)NCc1cccc(Cl)c1 | 9.2% |
| CCOC(=O)CSc1nc2sc3c(c2c(=O)n1Cc1ccccc1)CC(C)CC3 (stereo not drawn) | 3.76% |
| CCOc1ccccc1CNC(=O)CN1C(=O)CCCc2ccccc21 | -0.182% |
| Cc1ccc(C)c(CN2CCC(CNC(=O)Cn3ncc4c([nH]c5ccccc54)c3=O)CC2)c1 | 8.27% |
| CCn1c2ccccc2c2nnc(N3CCN(c4cccc(C)c4C)CC3)nc21 | -25.4% |
| O=C(NCCCN1CCOCC1)c1ccc2c(c1)N(Cc1ccccc1)C(=O)c1ccccc1S2 | 15.2% |
| CCOC(=O)c1c(C=O)c2sc(C)cc2n1C | active: 42.5% |
| NNC(=O)/C(=C\c1cccs1)NC(=O)c1ccccc1 | active: 30.8% |
| COc1ccc(S(=O)(=O)NCCc2cn3ccsc3n2)cc1OC | 0.853% |
| CC(=O)c1cccc(NC(=O)c2ccc(C)c(S(=O)(=O)N3CCOCC3)c2)c1 | active: 49.8% |
| CCOc1ccc(N(Cc2cc3cc(C)ccc3[nH]c2=O)C(=O)c2cccc(Cl)c2)cc1 | 1.91% |
| CCOC(=O)C1CCN(CCC(=O)Nc2ccccc2Cl)CC1 | -14.5% |
| COC(=O)c1ccccc1NS(=O)(=O)c1ccc(F)cc1 | active: 32.1% |
| Cn1c(=O)c2c(nc(NCCc3ccccc3)n2Cc2ccc(Cl)c(Cl)c2)n(C)c1=O | 12.6% |
| CC(C)c1nn2c(=O)cc(COC(=O)c3ccccc3NC(=O)c3cccs3)nc2s1 | -12.2% |
